Test results taken from ChEMBL document CHEMBL4888484, “Replenishing the malaria drug discovery pipeline: Screening and hit evaluation of the MMV Hit Generation Library 1 (HGL1) against asexual blood stage Plasmodium falciparum ,using a nano luciferase reporter read-out” (2022).
Screen size: about 150,000 compounds; about 540 (0.36%) showed an effect of 50% or more. Some of the results follow.

System: Plasmodium falciparum
Assay: Primary screen in NF54 nanoGlo assay, in single point, at 2uM, 72h; a lower Z score goes with more inhibition
Type: functional, Erythrocyte
Conditions: timepoint 72 hour

| Compound | % Inhibition [%] | Z score |
| --- | --- | --- |
| O=C(c1cn[nH]c1)N1CCN(Cc2ccc(Br)cc2)CC1 | -13 | 1.15 |
| O=C(Cc1ccn[nH]1)N[C@H]1CCN(c2ccc(Cl)cc2Cl)C1 | -1 | 0.12 |
| CCn1nc(CO)c2c1CCN(C(=O)NCCC1CCCCCC1)C2 | -12 | 1.05 |
| CC(C)=CCO[C@H]1COCC[C@@H]1NC(=O)c1c(C)noc1C | -10 | 1.21 |
| O=C(CC[C@H]1CCCN(S(=O)(=O)c2ccccc2F)C1)NCCN1CCOCC1 | -13 | 1.81 |
| O=C1CN(c2ccc(NC(=O)c3coc(CC4CC4)n3)cn2)CCN1 | -11 | 1.27 |
| Cc1noc(C)c1C(=O)OCc1cc(Cl)c2c(c1)OCO2 | -14 | 2.27 |
| O=S(=O)(NCCN1CCOCC1)c1ccc(-c2cnc(C3CCC3)o2)s1 | -12 | 1.4 |
| CC(C)C(=O)N1CC2(CCCCC2)C[C@@H]1COCc1ccccc1 | -9 | 1.61 |
| CN1C(=O)C[C@H](C(=O)N2CC[C@H](c3ccccc3)[C@H](CO)C2)[C@H]1c1cccnc1 | 5 | -0.71 |
| COc1ccc(CNC(=O)c2ccc(-c3nc(CN4CCc5ccccc54)c(C)o3)cc2)cc1 | -12 | 1.58 |
| COc1ccc(CCNC(=O)c2cccc3c2C(=O)N(C2CCCCC2)C3)cc1OC | -9 | 1.17 |
| COc1ccc(NC(=O)N(C2CCCCC2)[C@@H](C)c2ccco2)c(OC)c1 | -10 | 1.64 |
| CCCNCc1cc(Cl)ccc1OC | 36 | -4.03 |
| CC[C@H]1C=CCN1C(=O)c1ccc(C(=O)N2CCOCC2)cc1 | -3 | 0.55 |
| Cc1ccc2[nH]nc(CNC(=O)[C@@H]3CCCCO3)c2c1 | -3 | 0.54 |
| COc1ccc(CNc2cc(C3CC(N)C3)nc(C3CC3)n2)c(OC)c1 (stereo unspecified) | 2 | -0.37 |
| COc1ccc([C@H](C)NCCc2cn(C)cn2)c(Cl)c1 | 0 | 0.09 |
| Cc1cc(CNC(=O)CCCN2CCCC2=O)n(C)n1 | -15 | 2.03 |
| C[C@@H]1CN(C(=O)c2cccnc2N(C)C)CC[C@@]1(O)C1CCOCC1 | -2 | 0.26 |
| COc1cc2c(cc1OC)CN(C(=O)c1cccc(S(=O)(=O)N[C@H]3CCS(=O)(=O)C3)c1)CC2 | -3 | 0.5 |
| NCC[C@H]1CN(C(=O)CCc2ccc(-c3ccccc3)cc2)CCO1 | 7 | -0.9 |
| O=C(O)[C@@H]1CN(C(=O)Nc2ccn(-c3ccc(Cl)cc3Cl)n2)CCO1 | -8 | 1.27 |
| Cc1ccc(CC(=O)Nc2ccccc2N2C(=O)N[C@@H](C)C2=O)cc1C | 8 | -1.02 |
| O=C1CC[C@H](NC(=O)Nc2cc(-c3ccccc3)ns2)CN1 | -16 | 1.58 |
| C[C@@H](Cc1nc(-c2ccnn2C)cs1)n1cc(Cl)cn1 | 1 | -0.07 |
| CCn1nc(CC(C)C)cc1C(=O)N1CCOC[C@@H]1CC(=O)NC1CCC1 | -6 | 0.62 |

| Compound | % Inhibition [%] | Z score |
| --- | --- | --- |
| Cc1cccc(CNc2cc([C@H]3C[C@@H](N)C3)nc(N3CCCC3)n2)c1 | 32 | -1.33 |
| CCN1C[C@H](CN(C)C(=O)c2occc2C)Oc2ccccc21 | 5 | -0.67 |
| Cc1cc(-c2cc(C(=O)N[C@@H]3CCCC[C@H]3O)c3c(C)noc3n2)c(C)o1 | -7 | 0.94 |
| Nc1nc2[nH]c3c(c(=O)n2n1)CCCC3 | 5 | -0.55 |
| CCOC(=O)c1cn(CC2CCCCC2)c2nc(C)ccc2c1=O | 23 | -2.66 |
| CCOC(=O)c1cn(CCNC(=O)c2cc(Cl)cn2C)cn1 | 33 | -3.71 |
| CN1CCCN(C(=O)Cc2csc(-c3ccccc3)n2)c2nc3ccccc3nc21 | 4 | -0.59 |
| Cc1nc2ccccc2n1CCNCc1cccc2ccccc12 | -12 | 1 |
| CCn1cc(OCCOc2cccc(OC)c2)cn1 | -13 | 2.31 |
| C[C@@H]1[C@H](N(C)CCO)CCN1Cc1cnc(C(C)(C)C)nc1 | -3 | 0.37 |
| Cc1noc2ncc(C(=O)N3CCC[C@H](S(N)(=O)=O)C3)cc12 | 31 | -3.48 |
| CC(C)Cc1ncc(CN2CC(O)(c3ccccc3)C2)s1 | -1 | 0.18 |
| COc1ccc2c(c1)CCc1c(C(=O)Nc3ccc(C)cc3)n[nH]c1-2 | -4 | 0.59 |
| C[C@H]1CCCCN1c1ccnc(C2CC2)n1 | -15 | 1.88 |
| O=C(c1ccc(F)cc1F)N1CC[C@H]2CN(Cc3ccccc3)C[C@@]2(CO)C1 | -11 | 1.77 |
| Cc1cc(S(=O)(=O)NC2CCN(C)CC2)ccc1N1CCCC1=O | -7 | 1.2 |
| CCCN1CCN(C(=O)c2cc(NC(=O)C3CCC3)cc3nc(C)ccc23)CC1 | -14 | 1.98 |
| COCCn1ccc2c(OCC(=O)N3Cc4cc(OC)c(OC)cc4C[C@H]3C(N)=O)cccc21 | 0 | -0.03 |
| CC(=O)Nc1nnc(CCS(=O)(=O)c2ccccc2)o1 | -7 | 1.32 |
| CN(Cc1cc(-c2cccs2)n[nH]1)Cc1cc(CN2CCCC2)cs1 | -5 | 0.6 |
| O=C(c1cccnc1)N1C[C@@H]2OCC(=O)N(Cc3ccccn3)[C@@H]2C1 | 11 | -1.23 |
| CN(C)c1ccc(NC(=O)C2CCC2)cc1CN(CC1CC1)C(=O)C(C)(C)C | -2 | 0.25 |
| O=C(CN1CCN(CC(F)(F)F)c2ccccc21)Nc1ccccc1C(F)(F)F | -4 | 0.52 |
| Cc1ccc(NC(=O)N2CC(n3nccn3)C2)cc1C | 5 | -0.56 |
| C1CC[C@@H](c2nc(CCOCC3CCOCC3)no2)NC1 | -1 | 0.17 |
| O=C(NCCc1ccccc1)c1cccc(Nc2c(-c3ccc(Cl)cc3)nc3cnccn23)c1 | 8 | -1.54 |
